Source: paper PMC4474922, “Constitutive Activity in an Ancestral Form of Abl Tyrosine Kinase” (PLoS ONE, 2015)

Substrate: Nc1ncnc2c1ncn2[C@@H]1O[C@H](COP(=O)(O)OP(=O)(O)OP(=O)(O)O)[C@@H](O)[C@H]1O
Experiment: Km (ATP) by continuous spectrophotometric kinase assay
Type: biochemical, Homo sapiens
Details: Mg2+

B1: human Abl (Homo sapiens) (protein)
chain: MLEICLKLVGCKSKKGLSSSSSCYLEEALQRPVASDFEPQGLSEAARWNSKENLLAGPSE[about 60 residues left out here]LEKHSWYHGPVSRNAAEYLLSSGINGSFLVRESESSPGQRSISLRYEGRVYHYRINTASDGKLYVSSESRFNTLAELVHHHSTVADGLITTLHYPAPKRNKPTVYGVSPNYDKWEMERTDITMKHKLGGGQYGEVYEGVWKKYSLTVAVKTLKEDTMEVEEFLKEAAVMKEIKHPNLVQLLGVCTREPPFYIITEFMTYGNLLDYLRECNRQEVNAVVLLYMATQISSAMEYLEKKNFIHRDLAARNCLVGENHLVKVADFGLSRLMTGDTYTAHAGAKFPIKWTAPESLAYNKFSIKSDVWAFGVLLWEIATYGMSPYPGIDLSQVYELLEKDYRMERPEGCPEKVYELMRACWQWNPSDRPSFAEIHQAFETMFQESSISDEVEKELGKQGVRGAVSTLLQAPELPTKTRTSRRAAEHRDTTDVPEMPHSKGQGESDPLDHEPAVSPLLPRKERGPPEGGLNEDERLLPKDKKTNLFSALIKKKKKTAPTPPKRSSSFREMDGQPERRGAGEEEGRDISNGALAFTPLDTADPAKSPKPSNGAGVPNGALRESGGSGFRSPHLWKKSSTLTSSRLATGEEEGGGSSSKRFLRSCSASCVPHGAKDTEWRSVTLPRDLQSTGRQFDSSTFGGHKSEKPALPRKRAGENRSDQVTRGTVTPPPRLVKKNEEAADEVFKDIMESSPGSSPPNLTPKPLRRQVTVAPASGLPHKEEAGKGSALGTPAAAEPVTPTSKAGSGAPGGTSKGPAEESRVRRHKHSSESPGRDKGKLSRLKPAPPPPPAASAGKAGGKPSQSPSQEAAGEAVLGAKTKATSLVDAVNSDAAKPSQPGEGLKKPVLPATPKPQSAKPSGTPISPAPVPSTLPSASSALAGDQPSSTAFIPLISTRVSLRKTRQPPERIASGAITKGVVLDSTEALCLAISRNSEQMASHSAVLEAGKNLYTFCVSYVDSIQQMRNKFAFREAINKLENNLRELQICPATAGSGPAATQDFSKLLSSVKEISDIVQR
  Km: 32 µM
